# The list shows a part of the results. Cleavage of a single-stranded DNA pool by Rep nickase domains was read by sequencing (1 h at 37 °C, 3 µM enzyme); the outer parts of the 90-letter strands are left off. Values are log2 of uncut reads against the no-enzyme pool; uncut sequences lie near 0, cut ones below; no hit call is given. Shares of all reads are compared; where an enzyme cuts many sequences, the uncut ones exceed 0.
# Columns and labels:
# Test in all cases: uncleaved DNA left, log2 of reads against the no-enzyme library (log2 ratio); higher = less cleavage (more negative = more Rep cleavage of the k-mer); sequences stand for … in CTCGTCCG…ACCGGAGA
# [1] = system: T1, Rep nickase domain of Muscovy duck circovirus
# T1 sequence (Rep 1-111, printed without the tag): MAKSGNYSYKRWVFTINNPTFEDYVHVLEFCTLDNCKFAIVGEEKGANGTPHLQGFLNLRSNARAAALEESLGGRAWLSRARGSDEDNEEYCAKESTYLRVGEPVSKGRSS
# Method: (§1)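 A pool of 90-nt single-stranded DNAs with seven random bases just before the constant AC of the nick site (name = the seven bases) was cut by 3 µM recombinant His6-SUMO-tagged Rep nickase domain (300 nM DNA, 50 mM HEPES pH 8.0, 50 mM NaCl, 1 mM MnCl2, 1 h, 37 °C, three replicates). Uncut DNA was amplified and sequenced.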
# [2] = system: T2, Rep nickase domain of banana bunchy top virus
# T2 sequence (Rep 1-94, printed without the tag): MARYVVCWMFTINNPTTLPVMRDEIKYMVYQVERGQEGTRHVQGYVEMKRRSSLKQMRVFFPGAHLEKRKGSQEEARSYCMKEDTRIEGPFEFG
# Method: as §1
# [3] = system: T3, Rep nickase domain of cabbage leaf curl virus
# T3 sequence (Rep 1-116, printed without the tag): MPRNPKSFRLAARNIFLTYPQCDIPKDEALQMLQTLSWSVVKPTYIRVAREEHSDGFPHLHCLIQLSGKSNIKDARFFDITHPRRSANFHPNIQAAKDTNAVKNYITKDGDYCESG
# Method: as §1
# [4] = system: T4, Rep nickase domain of chickpea chlorotic dwarf virus
# T4 sequence (Rep 1-124, printed without the tag): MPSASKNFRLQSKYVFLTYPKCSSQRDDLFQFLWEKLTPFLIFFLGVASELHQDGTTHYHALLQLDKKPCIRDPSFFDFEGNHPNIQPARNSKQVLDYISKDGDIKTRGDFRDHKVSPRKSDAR
# Method: as §1
# [5] = system: T5, Rep nickase domain of faba bean necrotic yellows virus
# T5 sequence (Rep 1-98, printed without the tag): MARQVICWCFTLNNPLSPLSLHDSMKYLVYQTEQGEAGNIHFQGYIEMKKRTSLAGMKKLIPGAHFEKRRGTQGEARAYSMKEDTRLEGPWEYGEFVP
# Method: as §1
# [6] = system: T6, Rep nickase domain of maize striate mosaic virus
# T6 sequence (Rep 1-117, printed without the tag): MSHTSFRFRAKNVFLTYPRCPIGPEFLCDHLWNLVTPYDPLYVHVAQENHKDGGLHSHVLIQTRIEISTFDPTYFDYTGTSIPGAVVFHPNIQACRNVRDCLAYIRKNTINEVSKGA
# Method: as §1
# [7] = system: T7, Rep nickase domain of porcine circovirus 2
# T7 sequence (Rep 2-116, printed without the tag): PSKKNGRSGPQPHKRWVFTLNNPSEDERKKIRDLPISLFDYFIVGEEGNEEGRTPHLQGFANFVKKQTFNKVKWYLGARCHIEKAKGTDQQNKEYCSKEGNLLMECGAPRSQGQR
# Method: as §1
# [8] = system: T8, Rep nickase domain of tomato golden mosaic virus
# T8 sequence (Rep 1-124, printed without the tag): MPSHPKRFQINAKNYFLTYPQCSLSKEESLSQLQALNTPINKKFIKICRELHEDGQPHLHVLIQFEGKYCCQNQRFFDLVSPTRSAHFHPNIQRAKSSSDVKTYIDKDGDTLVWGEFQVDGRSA
# Method: as §1
# [9] = system: T9, Rep nickase domain of tomato yellow leaf curl virus
# T9 sequence (Rep 1-136, printed without the tag): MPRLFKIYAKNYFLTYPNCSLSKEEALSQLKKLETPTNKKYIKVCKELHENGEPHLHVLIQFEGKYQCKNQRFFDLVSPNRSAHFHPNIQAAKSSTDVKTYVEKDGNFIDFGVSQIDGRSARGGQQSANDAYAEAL
# Method: as §1
# [10] = system: T10, Rep nickase domain of wheat dwarf virus
# T10 sequence (Rep 1-137, printed without the tag): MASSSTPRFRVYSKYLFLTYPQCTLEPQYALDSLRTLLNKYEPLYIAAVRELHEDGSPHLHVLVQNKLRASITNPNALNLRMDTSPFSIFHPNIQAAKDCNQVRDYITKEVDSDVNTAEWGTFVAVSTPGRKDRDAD
# Method: as §1
Sequence,uncleaved DNA left (log2) [1],uncleaved DNA left (log2) [2],uncleaved DNA left (log2) [3],uncleaved DNA left (log2) [4],uncleaved DNA left (log2) [5],uncleaved DNA left (log2) [6],uncleaved DNA left (log2) [7],uncleaved DNA left (log2) [8],uncleaved DNA left (log2) [9],uncleaved DNA left (log2) [10]
CTGAGAT,0.181,-0.198,0.291,1.29,0.24,1.43,0.401,0.129,-0.0598,0.0371
ATAGCCA,-0.151,-0.0397,-0.228,-1.24,0.0313,-0.913,-0.127,-0.0132,-0.0595,-0.103
ATTCATT,-3.46,-3.08,-0.227,-2.45,-0.0748,-0.676,-3.84,-0.101,0.0289,-0.0977
CCAAACA,-0.0992,-0.0586,-0.186,-2.2,-0.0509,-0.649,-0.103,-0.0408,-0.0812,-0.114
CCCACCT,-0.0625,-0.0451,-0.0533,-2.08,-0.0555,-0.419,-0.309,-0.0586,-0.0839,-0.0589
TAGAAAT,0.0761,-0.309,-0.187,-1.18,-0.228,0.356,-3.15,0.17,0.111,0.131
GCGCGCT,0.165,0.014,-0.272,-0.325,0.0649,-0.319,0.0736,0.0154,-0.00965,-0.227
CGCTTCG,0.0496,-0.0411,-0.783,0.15,-0.0275,-0.963,0.256,-0.0285,-0.0015,0.0915
CAACCAC,-0.14,-0.0522,-0.217,-1.76,-0.0885,-0.771,-1,-0.134,-0.122,-0.0366
TATCTGG,0.11,0.0461,0.362,0.672,0.048,0.673,0.148,0.182,-0.0203,0.147
TTCATGC,0.0141,-0.0522,-0.601,-0.504,-0.00751,-1.31,0.109,-0.062,0.079,-0.0862
TTATACC,-0.576,0.0159,0.102,-1.16,-0.0678,-0.131,-2.92,-0.168,-0.0603,-0.0505
AGCGCGC,0.0531,0.0567,-0.139,0.1,0.00372,-0.0899,0.111,0.000559,-0.0935,0.00625
CCTCTTT,-0.144,-0.289,-0.31,-2.12,-0.0719,-0.853,-0.397,-0.174,-0.296,-0.125
GGTCACG,-0.00263,-0.0875,-0.386,-0.234,-0.0527,-0.61,0.0466,-0.0956,0.0354,-0.0509
GCCTATT,-2.75,-0.581,-0.458,-1.8,-0.251,0.0537,-2.56,-0.225,-0.122,-0.475
